Experimental data as given in a compilation of properties of binary mixtures (doi:10.1016/j.molliq.2022.119209).
Some of these densities may be calculated back from excess volumes.

Assay: xn = mol fraction of the nth substance listed
Settings: 100 kPa

O + CC(N)C(=O)[O-].CCCC[n+]1ccn(C)c1C
x2 = 0
Settings	mass density [kg/m3]
288.15 K	998
303.15 K	994.5
308.15 K	992.9

CC(N)C(=O)[O-].CCCC[n+]1ccn(C)c1C + O
mass density [kg/m3]
Settings	x1 = 0.1003	x1 = 0.2012	x1 = 0.3009	x1 = 0.4014	x1 = 0.4938	x1 = 0.5975	x1 = 0.6987	x1 = 0.7945	x1 = 0.8965
288.15 K	1066.3	1078	1083.5	1086	1087.3	1088.3	1089.3	1090	1091.8
293.15 K	–	1074.6	1080	1082.6	1083.8	1084.9	–	1086.6	1088.4
298.15 K	1059.7	1071.1	1076.5	1079.1	1080.4	1081.4	1082.4	1083.1	1084.9
303.15 K	1056.3	1067.6	1073	1075.6	1076.9	1078	1079	1079.7	1081.5
308.15 K	1053	1064.1	1069.5	1072.1	1073.4	1074.5	1075.5	1076.2	1078
313.15 K	1049.5	1060.5	1065.9	1068.6	1069.9	1071	–	1072.7	1074.6
318.15 K	1046.1	1056.9	–	1065	1066.3	1067.5	1068.5	1069.3	1071.1
